Measured values as given in the supplement of paper PMC11348887.
Structures can show the parent of a compound that is named as a salt. The list shows a part of the results. Cut-off read from the data, not from the text of the source: active = -2 or less and inactive = the rest. Single values are uncertain, as repeats are few or missing.

test system: hPSC-derived cortical neurons (WA09); test: nuclei number (viability) z-score; higher = more surviving cells; conditions: 5 µM; treatment: days 7-14 after plating, readout day 21
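Note: nuclei counted from DAPI counterstain by automated high-content image analysis, four fields per well at ×20 in 384-well plates, with sequential b-score then z-score normalization.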

Row | SMILES | nuclei number (z-score)
1 | CCNC(=O)C#Cc1ccc2c(C(=Nc3ccc(CN(C)C)cc3)c3ccccc3)c(O)[nH]c2c1 | active: -4.6
2 | CCCCOc1cc(C(=O)NCCN(CC)CC)c2ccccc2n1 [Dibucaine HCl] | inactive: 0.317
3 | O=P(O)(O)C(Cl)(Cl)P(=O)(O)O [Clodronate Disodium] | inactive: 0.219
4 | O=C1CCc2cc(OCCCCc3nnnn3C3CCCCC3)ccc2N1 [Cilostazol] | inactive: 0.591
5 | N#C[C@@H]1C[C@@H]2C[C@@H]2N1C(=O)[C@@H](N)C12CC3CC(CC(O)(C3)C1)C2 [Saxagliptin hydrate] | inactive: 0.19
6 | N#C[C@@H]1C[C@@H]2C[C@@H]2N1C(=O)[C@@H](N)C12CC3CC(CC(O)(C3)C1)C2 [Saxagliptin] | inactive: 1.09
7 | CCS(=O)(=O)CCn1c([N+](=O)[O-])cnc1C [Tinidazole] | inactive: 0.883
8 | Cc1cc(C(O)=C2C(=O)C(=O)N(CCCN3CCOCC3)C2c2ccncc2)ccc1OCc1ccccc1 (stereo unspecified) | inactive: 0.422
9 | Nc1ncnc2c1c(-c1cnc3[nH]ccc3c1)nn2C1CCCC1 | active: -3.75
10 | Cc1nc(NC(=O)N2CCC[C@H]2C(N)=O)sc1-c1ccnc(C(C)(C)C(F)(F)F)c1 | inactive: -0.155
11 | COc1ccc(C(=O)C2CCN(CC(=O)N(Cc3nc4c(c(=O)[nH]3)COCC4)CC3CC3)CC2)cc1 | inactive: -1.29
12 | CC(C)NCC(O)COc1cccc2ccccc12 (stereo unspecified) [Propranolol HCl] | inactive: -0.41
13 | Oc1c2ccccc2c2c3c(cccc13)N=N2 | inactive: -0.406
14 | COC(=O)[C@@H]1[C@H]2C[C@H]3c4[nH]c5ccccc5c4CCN3C[C@@H]2CC[C@@H]1O [Yohimbine HCl] | inactive: -0.492
15 | CN(C)Cc1ccc(-c2nc3cccc4c3n2CCNC4=O)cc1 | inactive: 1.14
16 | O=C(/C=C\n1cnc(-c2cc(C(F)(F)F)cc(C(F)(F)F)c2)n1)NNc1cnccn1 | active: -3.88
17 | Cc1[nH]c(/C=C2\C(=O)Nc3ccc(S(=O)(=O)N(C)c4cccc(Cl)c4)cc32)c(C)c1C(=O)N1CCN(C)CC1 | inactive: 1.01
18 | CCCCCCc1ccc(O)cc1O [Hexylresorcinol] | inactive: -0.855
19 | CCC1C/C(=C\c2cccnc2)C(=O)/C(=C/c2cccnc2)C1 (stereo unspecified) | active: -5.67
20 | CC(C)C[C@H](NC(=O)[C@H]1O[C@@H]1C(=O)O)C(=O)NCCCCN=C(N)N | active: -4.48
21 | O=NN(CCCl)C(=O)NC1CCCCC1 [Lomustine] | inactive: -0.782
22 | COc1cc(CCC(C)=O)ccc1O [Vanillylacetone] | inactive: 5.64
23 | Cc1cccc(CN2CCN(C(c3ccccc3)c3ccc(Cl)cc3)CC2)c1 (stereo unspecified) [Meclizine 2HCl] | active: -8.08

Row | SMILES | nuclei number (z-score)
24 | Cc1c[nH]c2nc(Nc3ccc(N4CCN(C)CC4)c(F)c3)nc(-c3cccc(CC#N)c3)c12 | active: -7.95
25 | O=C(O)CCC(=O)Nc1ccc(S(=O)(=O)Nc2nccs2)cc1 [Succinylsulfathiazole] | inactive: 0.707
26 | COc1cnc(NS(=O)(=O)c2ccc(N)cc2)nc1 [Sulfameter] | inactive: 0.364
27 | CC(C)c1cc(C(=O)N2Cc3ccc(CN4CCN(C)CC4)cc3C2)c(O)cc1O | active: -2.45
28 | CN1CCC(COc2cnc(-c3cccc(Cn4nc(-c5cccc(C#N)c5)ccc4=O)c3)nc2)CC1 | inactive: 0.000827
29 | CCOC(=O)C1=C[C@]2(CC)CCCN3CCc4c(n1c1ccccc41)[C@@H]32 [Vinpocetine] | inactive: 0.244
30 | C[C@]12CC[C@@H]3c4ccc(O)cc4CC[C@H]3[C@@H]1CCC2=O [Estrone] | inactive: 0.122
31 | COc1cc(C(=O)NC2CCCNC2)cc(OC)c1OC (stereo unspecified) [Troxipide] | inactive: 0.297
32 | CN(C)[C@@H]1C(O)=C(C(N)=O)C(=O)[C@@]2(O)C(O)=C3C(=O)c4c(O)ccc(Cl)c4[C@@](C)(O)[C@H]3C[C@@H]12 [Chlortetracycline HCl] | inactive: 0.5
33 | CCCCCCCCc1ccc(CCC(N)(CO)CO)cc1 [Fingolimod (FTY720) HCl] | active: -5.12
34 | CCC(CC)CC1(C(=O)Nc2ccccc2SC(=O)C(C)C)CCCCC1 | inactive: 1.69
35 | c1ccc2[nH]c(-c3cscn3)nc2c1 [Thiabendazole] | inactive: 4.66
36 | Cn1cc(-c2ccc3nnc(C(F)(F)c4ccc5ncccc5c4)n3n2)cn1 | inactive: 0.322
37 | CN1CC2c3ccccc3Oc3ccc(Cl)cc3C2C1 (stereo unspecified) [Asenapine] | inactive: 1.58
38 | CCCCNc1ncc2c(-c3ccc(CN4CCN(C)CC4)cc3)cn([C@H]3CC[C@H](O)CC3)c2n1 | active: -4.69
39 | COC1=C2C[C@@H](C)C[C@H](OC)[C@H](O)[C@@H](C)/C=C(\C)[C@H](OC(N)=O)[C@@H](OC)/C=C\C=C(/C)C(=O)NC(=CC1=O)C2=O [Geldanamycin] | active: -2.34
40 | CNC(=O)Nc1ccc(-c2nc(N3CC4CCC(C3)O4)c3cnn(C4CCC5(CC4)OCCO5)c3n2)cc1 | active: -2.68
41 | C[N+](C)(C)NCCC(=O)[O-] [Mildronate] | inactive: 1.42
42 | COc1ccc(-c2cc(=O)c3c(O)cc(O[C@@H]4O[C@H](CO[C@@H]5O[C@@H](C)[C@H](O)[C@@H](O)[C@H]5O)[C@@H](O)[C@H](O)[C@H]4O)cc3o2)cc1O [Diosmin] | inactive: -0.835
43 | COc1cc(Nc2ncc(F)c(Nc3ccc4c(n3)N(COP(=O)(O)O)C(=O)C(C)(C)O4)n2)cc(OC)c1OC [Fostamatinib (R788)] | inactive: 0.00234
44 | COc1cc(Nc2ncc(F)c(Nc3ccc4c(n3)N(COP(=O)(O)O)C(=O)C(C)(C)O4)n2)cc(OC)c1OC [R788 (Fostamatinib) Disodium] | inactive: -0.486
45 | Cc1nnc(C(C)C)n1C1C[C@H]2CC[C@@H](C1)N2CC[C@H](NC(=O)C1CCC(F)(F)CC1)c1ccccc1 (stereo in doubt) [Maraviroc] | inactive: 1.19
46 | CCCCCCCN(CC)CCCC(O)c1ccc(NS(C)(=O)=O)cc1 (stereo unspecified) [Ibutilide Fumarate] | inactive: 1.95
